# Assay results reported in PubChem BioAssay AID686978 (National Center for Advancing Translational Sciences (NCATS), 2013).
# Screen size: about 420,000 compounds; about 64,000 (15%) were called active. The shares of active, inactive and inconclusive entries below differ from those in the screen. The call rests on the fitted dose curve; in most records, active means well fitted inhibition curve with a large enough effect; inconclusive means small, poorly fitted or top-dose-only effect; inactive means flat fitted curve, though single readings scatter. Potencies of inconclusive entries are left out as doubtful fits.
# Test: qHTS for Inhibitors of human tyrosyl-DNA phosphodiesterase 1 (TDP1): qHTS in cells in absence of CPT; further: nearly all actives have a fitted effect of over 55% in size
# Conditions: DT40 Tdp1-/- hTDP1 cells, no CPT, ATP luminescence, 48 h; activity change, negative = growth inhibition: at 46.2 µM (top of the series) unless noted
# How it was run: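 Seeded 400 DT40-hTDP1 cells/well (vehicle DMSO, no 20 nM CPT); pinned compounds; ≥48 hr at 37 °C; CellTiter-Glo luminescence as viability measure.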
# On the % scale 0 is the no-effect control and ±100 the full control effect; potency means the concentration at half of the fitted maximal effect; tags describe the fitted curve by direction and shape.
SMILES,Potency,"activity change, negative = growth inhibition"
COc1ccccc1NC(=O)N1CCc2[nH]c3ccc(Cl)cc3c2C1,"inconclusive [inhibitor, partial curve, poor fit]",–
COc1cc(NC(=O)CSc2nc(-c3ccc(C)cc3)nc3c2Cc2ccccc2O3)cc(OC)c1,"inconclusive [inhibitor, single point]",–
Cc1ccc(-n2c(O)c(C=Nc3ccc4c(c3)OCO4)c3ccccc3c2=O)cc1C,"inconclusive [inhibitor, partial curve]",–
CCC(C)N(C(=O)c1csnn1)C(C(=O)NCc1ccc(F)cc1)c1ccccc1F (stereo not given),"inconclusive [inhibitor, partial curve]",–
COc1ccc(C2N=C(c3ccccc3)C(C)(C)N2O)cc1 (stereo not given),"inconclusive [inhibitor, partial curve]",–
O=C(Cc1cccc2ccccc12)N/N=C/C=C/c1cccc([N+](=O)[O-])c1,"inconclusive [inhibitor, single point]",–
Cc1ccccc1Cn1cnc2ccccc21,active: 20.6 µM,–
COc1ccc(OC)c(NC(=O)Cn2cc(C=O)c3ccccc32)c1,"inconclusive [inhibitor, single point]",–
COc1ccc(CNCc2cccc(OC)c2OC)cc1Br,"inconclusive [inhibitor, partial curve, poor fit]",–
CCCCn1c(N)c(N(CC(C)C)C(=O)c2ccc(Br)o2)c(=O)[nH]c1=O,inactive,–
CC(C)CCCN1CCN=C1N(C)C,inactive,–
O=C(Cn1nnc(-c2ccccc2)n1)OCc1csc(-c2ccccc2)n1,"inconclusive [inhibitor, full curve, poor fit]",–
CC(=O)c1c(C(C)=O)c(C)n(-c2ccc(C)c(NC(=O)c3ccccc3Cl)c2)c1C,"inconclusive [inhibitor, partial curve]",–
CCCNC(=O)c1cccc(S(=O)(=O)N2CC3(C)CC2CC(C)(C)C3)c1 (stereo not given),"inconclusive [inhibitor, single point]",–
COCCNC(=O)C(=O)NCC1OCCCN1S(=O)(=O)c1cccs1 (stereo not given),inactive,–
COc1cc(S(=O)(=O)N2CCN(Cc3ccccc3)CC2)ccc1Br,"inconclusive [inhibitor, single point]",–
Cc1ccc2cc(CN(Cc3ccco3)C(=O)NC3CCCCC3)c(=O)[nH]c2c1C,active: 29.1 µM,–
COc1cc(/C=N/NC(N)=O)c(Br)cc1OCC(=O)Nc1ccccc1C,"inconclusive [inhibitor, single point]",–
COc1cc(OC)c(NC(=O)c2ccccc2F)cc1Cl,inactive,–
CC(C)(C)c1ccccc1NC(=O)NC1CCN(Cc2c(F)cccc2Cl)CC1,inactive,–
COC(=O)CSc1nnc(-c2cccnc2)o1,inactive,–
Cc1ccc(N(C(=O)CNC(=O)c2ccco2)C(C(=O)NC2CCCC2)c2ccncc2)c(C)c1 (stereo not given),inactive,–
CC1Sc2ccc(S(=O)(=O)NCCc3ccc(S(N)(=O)=O)cc3)cc2NC1=O (stereo not given),inactive,–
CCOc1ccc(Br)cc1S(=O)(=O)NC1=NCCCCC1,inactive,–

SMILES,Potency,"activity change, negative = growth inhibition"
CCN1C(=O)[C@H]2[C@@H](c3ccc(-c4cc(C(C)=O)cs4)cc3)N3CCC[C@@]3(C(=O)OC)[C@H]2C1=O,active: 23.1 µM,–
CCc1ccccc1Nc1nc(N)nc(CSCC(=O)Nc2ccc(C)c(C)c2)n1,"inconclusive [inhibitor, single point]",–
c1ccc(Cc2cc[n+](Cc3ccccc3)cc2)cc1,active: 20.6 µM,–
CC(C)[C@H](NC(=O)OCc1ccccc1)C(=O)OCC(=O)N1CCN(c2ccccc2)CC1,inactive,–
CCCCCCCCN1C(=O)[C@H](CC(=O)NCCc2ccccc2OC)C[C@@]2(C(=O)OC)CC(C)(C)CC=C12,"inconclusive [inhibitor, single point]",–
CC(=O)c1ccc(NC(=O)CSc2cn(CC(=O)N3CCCCCC3)c3ccccc23)cc1,"inconclusive [inhibitor, single point]",–
O=C(NCc1nc2ccccc2[nH]1)C1=C[C@H](c2ccc3c(c2)OCO3)C[C@H](OCc2ccc(CO)cc2)O1,"inconclusive [inhibitor, single point]",–
C[C@H]1CN([C@@H](C)CO)C(=O)c2cccc(NC(=O)C3CC3)c2O[C@H]1CN(C)S(=O)(=O)c1cccs1,inactive,–
COCCn1c(=O)c(-c2ccc(F)cc2)nc2cncnc21,inactive,–
CC(C)CN1CC[C@@]2(CCCN(C(=O)c3csnn3)C2)C1,"inconclusive [inhibitor, single point]",–
S=C(NCc1ccccc1)C(=S)NCc1ccccc1,inactive,–
COc1ccccc1NC(=O)COC(=O)c1cc(C)nc2ccccc12,"inconclusive [inhibitor, single point]",–
CCCCN(C)C(=O)c1sc(=O)n(Cc2cc(Cl)ccc2OC)c1C,"inconclusive [inhibitor, single point]",–
Cc1c(CCC(C)C)c(-n2ccnc2C)n2c(nc3ccccc32)c1C#N,"inconclusive [inhibitor, single point]",–
CN(C(=O)CSc1ccc2c(c1)OCCO2)c1ccccc1,"inconclusive [inhibitor, single point]",–
C=CCN(CC=C)CCOc1ccc2ccccc2c1,"inconclusive [inhibitor, partial curve]",–
O=c1c2ccc(Cl)cc2[nH]c(=S)n1CCCN1CCOCC1,"inconclusive [inhibitor, single point]",–
COc1ccc(NC(=O)CSc2oc(-c3ccco3)nc2S(=O)(=O)c2ccc(Br)cc2)c(OC)c1,"inconclusive [inhibitor, single point]",–
COc1ccc(-c2oc3ccc(-c4cc(OC)c(OC)c(OC)c4)cc3c2C(=O)c2ccc(OC)nc2)cc1,"inconclusive [inhibitor, single point]",–
CCOC(=O)CNC(=O)c1cn(CC)c(=O)c2cc(OC)c(OC)cc12,inactive,–
C=CCN1C(=O)/C(=C/N(C)C)S/C1=N\S(=O)(=O)c1cccs1,inactive,–
CC1=CC(C)(C)NC(=S)N1c1cccc(Cl)c1,"inconclusive [inhibitor, single point]",–
O=C(C1=C[C@H](c2ccc3c(c2)OCO3)C[C@H](OCCCCO)O1)N1CCN(Cc2ccccc2)CC1,"inconclusive [inhibitor, single point]",–
COc1cccc(Cn2cccc(NC(=O)Nc3ccc(C#N)cc3)c2=O)c1,active: 8.2 µM,–

SMILES,Potency,"activity change, negative = growth inhibition"
CCCc1cc(=O)[nH]c(Nc2ccc(O)cc2)n1,"inconclusive [inhibitor, partial curve]",–
CCOC(=O)N1CCN(C(=O)CN(C2CCCCC2)S(=O)(=O)c2ccc(C)cc2)CC1,"inconclusive [inhibitor, single point]",–
CC(C)Cn1c(=O)c2sccc2n2c(CCCC(=O)NCc3ccccc3Cl)nnc12,inactive,–
Cc1ccc2cc3cc(C(=O)NCc4ccc5c(c4)OCO5)oc3nc2c1,inactive,–
O=C(COC(=O)C12CC3CC(CC(O)(C3)C1)C2)Nc1ccc(Cl)cc1F,–,inconclusive: -30.4% [inhibitor]
CN1C(=O)c2cccc3c(Br)ccc(c23)C1=O,"inconclusive [inhibitor, single point]",–
CC1CCN(C(=O)COC(=O)c2cccc(S(=O)(=O)N(C)c3ccccc3)c2)CC1,"inconclusive [inhibitor, single point]",–
O=C(O)c1ccc(SCc2ccccc2)nc1,inactive,–
COc1ccccc1C(=O)Nn1c(C)nc2ccccc2c1=O,"inconclusive [inhibitor, single point]",–
CN(C(=O)c1ccc(NC(=O)Cc2ccc(NC(=O)C3CCCN(C(=O)CCc4ccccc4)C3)cc2)cc1)C1CC1 (stereo not given),active: 13 µM,–
COc1ccc(Nc2nc(OC)nc(N3CCN(c4ccc(OC)cc4)CC3)n2)cc1,"inconclusive [inhibitor, single point]",–
O=C(CSc1nc(Nc2ccccc2)nc(N2CCOCC2)n1)N1CCCC1,active: 20.6 µM,–
CC(=O)N1c2ccc(S(=O)(=O)N3CCCCCC3)cc2CC1C(=O)NCc1ccc(Cl)cc1 (stereo not given),"inconclusive [inhibitor, single point]",–
Cc1occc1-c1nnc(SCC(N)=O)n1Cc1ccccc1,inactive,–
COc1ccc(C(=O)C[C@@H]2OC[C@H](Cc3ccccc3)N2S(=O)(=O)c2ccc(C)cc2)cc1OC,"inconclusive [inhibitor, single point]",–
CCOC(=O)N1CCC(NC(=O)c2cnn(-c3cccc(Cl)c3C)c2C2CCN(C(=O)OC(C)(C)C)CC2)CC1,inactive,–
Cc1oc2c(C)c3oc(=O)c(CCC(=O)NCCN4CCOCC4)c(C)c3cc2c1C,"inconclusive [inhibitor, single point]",–
COc1ccc(N2C(=O)c3ccccc3NC2c2ccc(OC)c(COc3ccc(NC(C)=O)cc3)c2)cc1 (stereo not given),"inconclusive [inhibitor, single point]",–
Cc1ccccc1C(=O)N1CCC(C(=O)NCCc2ccc(S(N)(=O)=O)cc2)CC1,inactive,–
CCN(CC)C(=O)C(Cc1ccccc1)N1C(=O)c2ccccc2C1=O (stereo not given),"inconclusive [inhibitor, single point]",–
N#C/C(=C(/O)c1cc2ccccc2o1)c1nc2ccccc2s1,active: 13 µM,–
O=C(COC(=O)c1ccc(Cl)cc1O)NCCN1C(=O)CSC1=O,inactive,–
